Test results from PubChem BioAssay (NCATS).
The inconclusive results got no clear call from the source; some entries with a clear call stand among them for comparison. For some of these results: A potency beside an inconclusive call is a rough fit, not a confirmed value. The source made the active and inactive calls. Unless noted, calls come from the whole dose curve; as a rule, active = well fitted curve in the direction sought with a large enough effect; inconclusive = small, poorly fitted or top-dose-only effect, or another doubt; inactive = no such curve, though single readings can be large; an effect the other way counts as inactive or inconclusive.

Assays:
[1] = qHTS Assay for Identification of Small Molecule Agonists for Hypoxia Response Element Signaling Pathway (AID 914; active = well fitted activation curve with a large enough effect in the signal ratio, with a control signal flat, not every such curve was filed as active; inconclusive = small, poorly fitted or top-dose-only effect, or effect the other way, or a change in a side signal; the % refers to the signal ratio; note: potency is the fitted concentration of half-maximal effect); conditions: ME-180 (cervical carcinoma) HRE-bla reporter, beta-lactamase ratio, CoCl2, 17 h; activation: stronger effect = higher value
Outline: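 qHTS titration; ME-180 HRE-bla cells; EC50 CoCl2 co-treatment, 17 h at 37 degrees Celsius; CCF4 dye, ex 405nm, em 460nm and 530nm; %Activity from ratio; AC50.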

[2] = qHTS Assay for Identification of Small Molecule Antagonists for Thrombopoietin (TPO) Signaling Pathway (AID 918); conditions: TPO-dependent cell signaling reporter, antagonist mode; activity change, negative = inhibition: at 38.5 µM (top of the series); note: nearly all actives have a fitted effect of over 60% in size
Outline: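 Antagonist mode at EC50 TPO (26 pM) in IL-3-free medium; murine Ba/F3 cells with human TPO receptor and GPIIb-promoter luciferase, 24 hrs at 37 C before luminescent detection.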

[3] = system: Zika virus NS2B-NS3 protease (unlinked complex); test: Primary screen GU Rhodamine qHTS for Zika virus inhibitors: Unlinked NS2B-NS3 protease assay (AID 1347159); conditions: Recombinant ZIKV NS2B-NS3 protease, Rhodamine110 substrate fluorescence; activity change, negative = inhibition: at 107 µM (top of the series); note: potency is the fitted concentration of half-maximal effect; nearly all actives have a fitted effect of over 60% in size
Outline: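 Buffer 10 mM Tris-HCl pH 8.0, 0.01% Tween 20. Unlinked protease 25 nM; compound preincubation 15 min, RT, protected from light. Substrate Rhod110, 1.5 microM; ~15% conversion in 15 min.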

[4] = system: Zika virus NS2B-NS3 protease (linked construct); test: Primary screen NINDS Rhodamine qHTS for Zika virus inhibitors (AID 1347160); note: potency is the fitted concentration of half-maximal effect; nearly all actives have a fitted effect of over 55% in size
Outline: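 Aprotinin served as in-plate control. Conditions: 25 nM linked NS2B-NS3, pH 8.0 Tris buffer, titrated compounds, 15 min preincubation and 15 min reaction with 1.5 microM Rhod110 substrate at room temperature.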

[5] = Primary qHTS for inhibitors of nuclear receptor binding SET domain protein 2 (NSD2) in an isogenic RCH-ACV NSD2 p.E1099K mutant (9B) (AID 1645876); conditions: activity change, negative = viability loss: at 44.9 µM (top of the series) unless noted; note: nearly all actives have a fitted effect of over 70% in size
SKOV3 = test: Primary qHTS to identify gynecologic anti-cancer compounds using libraries of approved drugs and bioactive compounds (AID 1345084); conditions: Gynecologic cancer cell panel viability, ATPlite luminescence, 48 h; series mostly up to 57.5 µM; note: potency is the fitted concentration of half-maximal effect; nearly all actives have a fitted effect of over 55% in size
Outline: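 Cells, 1,000 per well, were allowed to settle for 16 h at 37 C before compound addition. Five concentrations were tested for 48 h, and viability was read by ATPlite luminescence after 15 min at room temperature.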

[6] = P-glycoprotein substrates identified in KB-8-5-11 adenocarcinoma cell line, qHTS therapeutic library screen (AID 1346987); conditions: activity change, negative = cytotoxicity: at 44.5 µM (top of the series); note: nearly all actives have a fitted effect of over 65% in size; for activity change, negative = cytotoxicity: % is set by controls: 0 for no effect and ±100 for the full control effect
Outline: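 Human cervical adenocarcinoma KB-8-5-11 cells, selected in colchicine to over-express P-gp and assayed without it, were exposed for 72 h to titrated compounds. An ATP-based luminescent viability signal gave AC50.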

[7] = qHTS to identify inhibitors of the type 1 interferon - major histocompatibility complex class I in skeletal muscle: primary screen against the NCATS Mechanism Interrogation Plate v5.0 (MIPE) Libary (AID 1347411); conditions: iHSKM cells + IFN-b, HiBiT-tagged MHC-I luminescence, 24 h; activity change, negative = inhibition: at 45.8 µM (top of the series) unless noted;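 note: plate controls were vehicle for no effect and reference inhibitor for full effect; nearly all actives have a fitted effect of over 65% in size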
Outline: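 IFN-beta-driven (4 ng/ml) HLA-B-HiBit expression in CRISPR-tagged C25cl48 myoblasts; compounds 11-pt, 1:3, max 46 uM, 24 hr exposure; lytic NanoLuc complementation luminescence.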

[8] = target: Phospholipid hydroperoxide glutathione peroxidase GPX4 (Homo sapiens) (UniProt P36969); test: Primary qHTS Assay for Inhibitors of Recombinant Selenoprotein Glutathione Peroxidase 4 (GPX4) (AID 1845192); conditions: activity change, negative = inhibition: at 50 µM (top of the series) unless noted; note: potency is the fitted concentration of half-maximal effect; nearly all actives have a fitted effect of over 65% in size
Outline: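 NADPH consumption followed by fluorescence at 340/450 nm, t=0 and after 15 min at room temperature. Reaction started with cumene hydroperoxide (0.5 mM final) after 30 min compound–GPX4 preincubation; final 200 nM GPX4, 100 nM GR, 1 mM GSH, 0.5 mM NADPH.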

[9] = system: Nanoluciferase (engineered Oplophorus gracilirostris luciferase); test: Primary Nanoluciferase (NLuc) qHTS assay for identification of artifact compounds. (AID 1845222); note: potency is the fitted concentration of half-maximal effect
Outline: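 Compounds are pinned into diluted (1:55) conditioned medium of NLuc-expressing S16 cells and held 15 min at room temperature protected from light. Nano-Glo substrate follows, and luminescence is read 5 min later.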

[10] = Primary redox qHTS assay for identification of artifact compounds. (AID 1845223); note: potency is the fitted concentration of half-maximal effect
Outline: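 Redox-cycling detection via DTT (250 uM final) oxidation coupled to Amplex Red (25 uM)/HRP (250 mU/mL) in HBSS. 15 min preincubation plus 30 min after DTT, room temperature. Ex/Em 525/598 nm; 4-parameter Hill fit against DMSO and 10 uM DA3003.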

[11] = Primary fluorescence-based thiol-reactive (MSTI) qHTS assay for identification of artifact compounds. (AID 1845221);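 note: thiol-reactive compounds lower the probe fluorescence signal; nearly all actives have a fitted effect of over 65% in size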
Outline: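 qHTS titration of compound; 4 uM MSTI, PBS pH 7.4, 2% DMSO; 1 h RT, dark; fluorescence 525/598 nm; normalized to Acetyl-MSTI and MSTI; 4-parameter Hill fit.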

Furin (Homo sapiens) = Furin (Homo sapiens) (UniProt P09958); test: Furin counterscreen qHTS for Zika virus inhibitors (AID 1347149);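 note: purified recombinant full-length human furin enzyme at 5 nM; fluorescence gain from furin cutting a BOC-RVRR-AMC peptide substrate over 15 min; top concentration of the series differs between compounds; plate controls were no-inhibitor control for no effect and no-enzyme control for full effect; nearly all actives have a fitted effect of over 70% in size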
Outline: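 Counterscreen measures cleavage of 2 microM BOC-RVRR-AMC, below its ~15 microM Km, by 5 nM full-length human furin at pH 7.0 after a 15-min compound preincubation. Inhibition derives from the 15-min fluorescence increase at 37C.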

[12] = system: Zika virus NS2B-NS3 protease (linked construct); test: Confirmatory screen NINDS AMC qHTS for Zika virus inhibitors (AID 1347152); note: potency is the fitted concentration of half-maximal effect; nearly all actives have a fitted effect of over 70% in size
Outline: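 Linked NS2B-NS3 protease, 1 nM, in 10 mM Tris-HCl pH 8.0, 0.01% Tween 20; compounds preincubated 15 min at room temperature. Nle-KRR-AMC 10 microM (Km 18.3 µM); 15-min fluorescence change (340/450 nm) fitted to 4-parameter Hill.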

[13] = system: Zika virus NS2B-NS3 protease (unlinked complex); test: Confirmatory screen GU AMC qHTS for Zika virus inhibitors (AID 1347153);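 note: enzyme at 25 nM with substrate at 10 µM below its Km of 18.3 µM; potency is the fitted concentration of half-maximal effect; nearly all actives have a fitted effect of over 70% in size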
Outline: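 Noncovalent NS2B hydrophilic domain/NS3 protease complex (25 nM) in 10 mM Tris-HCl pH 8.0, 0.01% Tween 20 was preincubated 15 min at room temperature with compounds. Then 10 µM AMC substrate (Km 18.3 µM) was added; fluorescence was read over 15 min and fitted to a 4-parameter Hill equation.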

[14] = system: Zika virus NS2B-NS3 protease (linked); test: 384 well plate NINDS AMC confirmatory qHTS for Zika virus inhibitors (AID 1347163); note: potency is the fitted concentration of half-maximal effect; nearly all actives have a fitted effect of over 50% in size
Outline: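 Enzyme (5, 30 or 60 nM final) first met test compounds for ~15 min. The AMC-tagged peptide Ac-VKTGKR-AMC followed at 30 microM. Fluorescence was then recorded at 25 min and scaled against no-enzyme and no-inhibitor wells.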

[15] = system: Zika virus NS2B-NS3 protease (linked construct); test: 384 well plate NINDS Rhodamine confirmatory qHTS for Zika virus inhibitors (AID 1347164)
Outline: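 Linked NS2B-NS3 protease (final 5, 30 or 60 nM) preincubated ~15 minutes with compounds, then 10 microM Ac-LKRR-Rhodamine 110 added. Fluorescence (485/538 nm) read after 25 minutes at room temperature, normalized to no-enzyme and no-inhibitor controls.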

[16] = Tertiary RLuc qRT-PCR qHTS assay for Zika virus inhibitors (AID 1347169); note: potency is the fitted concentration of half-maximal effect; nearly all actives have a fitted effect of over 55% in size
Outline: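 Vero cells (1,000/well) infected with recombinant ZIKV-RLuc (Cambodian) at MOI 1-2 after compound addition, 48-72 hrs at 37 degrees C. Live-cell Renilla luciferase substrate added; luminescence read after 1-1.5 hrs.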

[17] = target: Cytochrome P450 2D6 (Homo sapiens) (UniProt P10635); test: Cytochrome P450 family 2 subfamily D member 6 (CYP2D6) small molecule antagonists: luciferase biochemical (cell-free) qHTS assay (AID 1645840; active = well fitted curve in the direction sought with a large enough effect in the repeat runs; inconclusive = weak or mixed curves; inactive = no such curve, though single readings can be large; an effect the other way counts as inactive or inconclusive; note: potency is the fitted concentration of half-maximal effect; nearly all actives have a fitted effect of over 55% in size)
Outline: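 P450-Glo CYP2D6 system: proluciferin substrate converted by enzyme to luciferin, read by luminescence proportional to activity. Enzyme-substrate mix with compound 10 min at room temperature, then NADPH regeneration 1 h before detection reagent.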
Tags give direction and shape of the fitted curve or compound fluorescence and quenching.

UniProt P36969, sequence (P36969 whole entry, looked up): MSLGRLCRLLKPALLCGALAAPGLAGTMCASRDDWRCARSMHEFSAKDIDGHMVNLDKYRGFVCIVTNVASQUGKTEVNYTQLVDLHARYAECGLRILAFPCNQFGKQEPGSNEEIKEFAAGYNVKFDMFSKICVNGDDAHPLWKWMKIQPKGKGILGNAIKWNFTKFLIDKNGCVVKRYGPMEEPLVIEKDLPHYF
UniProt P10635, sequence (P10635 whole entry, looked up): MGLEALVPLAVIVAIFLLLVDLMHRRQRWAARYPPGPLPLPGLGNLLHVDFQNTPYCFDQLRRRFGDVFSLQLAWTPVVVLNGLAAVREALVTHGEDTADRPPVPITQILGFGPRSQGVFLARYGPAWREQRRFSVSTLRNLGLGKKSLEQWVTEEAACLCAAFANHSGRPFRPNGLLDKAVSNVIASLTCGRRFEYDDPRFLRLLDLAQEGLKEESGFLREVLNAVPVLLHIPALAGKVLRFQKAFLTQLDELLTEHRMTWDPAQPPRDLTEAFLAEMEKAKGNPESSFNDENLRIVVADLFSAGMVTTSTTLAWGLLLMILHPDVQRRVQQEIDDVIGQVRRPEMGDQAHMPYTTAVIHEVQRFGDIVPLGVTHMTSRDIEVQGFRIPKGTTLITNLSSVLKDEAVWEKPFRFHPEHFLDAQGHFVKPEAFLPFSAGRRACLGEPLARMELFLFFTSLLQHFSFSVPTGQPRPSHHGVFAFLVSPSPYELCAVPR
UniProt P09958, sequence (P09958 whole entry, looked up): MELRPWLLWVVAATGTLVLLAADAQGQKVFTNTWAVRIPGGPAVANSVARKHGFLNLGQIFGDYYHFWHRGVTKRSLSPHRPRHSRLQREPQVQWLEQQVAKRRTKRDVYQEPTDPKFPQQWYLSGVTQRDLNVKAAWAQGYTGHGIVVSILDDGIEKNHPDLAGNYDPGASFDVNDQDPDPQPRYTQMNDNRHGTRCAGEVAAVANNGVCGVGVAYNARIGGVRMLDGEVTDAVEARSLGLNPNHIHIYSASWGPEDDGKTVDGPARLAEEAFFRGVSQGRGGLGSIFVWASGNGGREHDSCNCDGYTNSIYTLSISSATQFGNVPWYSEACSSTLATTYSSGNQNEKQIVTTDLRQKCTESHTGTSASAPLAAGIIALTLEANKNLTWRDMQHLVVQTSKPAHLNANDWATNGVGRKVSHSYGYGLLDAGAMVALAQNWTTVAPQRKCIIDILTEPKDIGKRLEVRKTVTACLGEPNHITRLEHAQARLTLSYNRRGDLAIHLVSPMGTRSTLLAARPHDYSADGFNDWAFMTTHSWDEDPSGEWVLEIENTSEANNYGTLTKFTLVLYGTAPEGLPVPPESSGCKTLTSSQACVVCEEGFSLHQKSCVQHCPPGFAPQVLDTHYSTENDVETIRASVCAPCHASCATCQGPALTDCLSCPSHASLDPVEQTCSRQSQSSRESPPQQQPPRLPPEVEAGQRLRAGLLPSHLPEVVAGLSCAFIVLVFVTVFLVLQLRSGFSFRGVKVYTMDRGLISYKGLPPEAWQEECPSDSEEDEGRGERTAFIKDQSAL

C[C@]1(C2CCCC2)Cc2cc(OCC(=O)O)c(Cl)c(Cl)c2C1=O
inconclusive: Potency [1] 25.1 µM [inhibitor, partial curve, poor fit] | activity change, negative = inhibition [2] -16.7% [phenotype inactive] | Potency [3] 35.5 µM [inhibitor, single point] | Potency [4] 17.8 µM [inhibitor, partial curve] | Potency (SKOV3) 39.8 µM [rising, single point]
inactive: Potency [5]

COc1ccc2cc(OCC3(C(=O)O)CN(C(=O)c4ccc(F)cc4)C3)ccc2c1
inconclusive: Potency [3] 44.7 µM [inhibitor, partial curve] | Potency [8] 20.2 µM [inhibitor, single point] | Potency [9] 19 µM [inhibitor, partial curve] | Potency [10] 4.23 µM [activator, full curve, poor fit] | Potency (SKOV3) 39.8 µM [rising, single point]
inactive: Potency [6] | Potency [7]

COc1ccc(C(=O)O[C@H]2CC(C)=CC[C@@]3(C)[C@@H](OC(C)=O)C[C@@](O)(C(C)C)[C@H]23)cc1
inconclusive: Potency [10] 11.6 µM [activator, single point] | Potency (SKOV3) 17.8 µM [rising, single point]
inactive: Potency [6] | Potency [11]

COc1cccc(CNc2ccc(S(=O)(=O)Nc3nc4ccccc4s3)cc2)c1O
inactive: Potency (Furin (Homo sapiens))
inconclusive: Potency [12] 44.1 µM [inhibitor, partial curve] | Potency [13] 27.8 µM [inhibitor, partial curve] | Potency [14] 4.47 µM [inhibitor, full curve] | Potency [15] 12.6 µM [inhibitor, partial curve] | Potency [17] 23.9 µM [inhibitor, single point] | Potency [10] 26.7 µM [activator, partial curve, poor fit] | Potency (SKOV3) 39.8 µM [rising, single point]
active: Potency [3] 3.55 µM | Potency [4] 6.31 µM | Potency [16] 0.186 µM
